# Laboratory results from PubChem BioAssay AID485344 (National Center for Advancing Translational Sciences (NCATS), 2010).
# Hit rate of the full screen: of about 340,000 compounds, about 6,900 (2%) were called active. Rule as the data show it: active = inhibition above about 30%; inactive = below that, where a call was filed. The entries are a selection whose mix differs from that of the whole data set. The source gives no active or inactive call for entries shown without one.
# Target: D(2) dopamine receptor (Homo sapiens) (UniProt P14416)
# Sequence of UniProt P14416 (P14416 whole entry, looked up): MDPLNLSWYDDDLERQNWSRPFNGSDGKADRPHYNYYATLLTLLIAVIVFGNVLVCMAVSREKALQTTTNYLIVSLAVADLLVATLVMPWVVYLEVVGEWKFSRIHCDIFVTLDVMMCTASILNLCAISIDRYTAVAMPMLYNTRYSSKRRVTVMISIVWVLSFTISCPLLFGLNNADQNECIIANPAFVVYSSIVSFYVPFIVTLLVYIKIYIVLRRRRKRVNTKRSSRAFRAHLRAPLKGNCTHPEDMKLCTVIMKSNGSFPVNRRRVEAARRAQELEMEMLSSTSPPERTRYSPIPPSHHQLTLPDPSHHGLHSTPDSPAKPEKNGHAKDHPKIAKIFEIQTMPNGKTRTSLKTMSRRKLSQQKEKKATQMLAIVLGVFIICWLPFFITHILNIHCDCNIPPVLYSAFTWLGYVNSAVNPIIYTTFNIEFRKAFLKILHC
# Assay: HTS Assay for Allosteric Antagonists of the Human D2 Dopamine Receptor: Primary Screen for Antagonists; also: 0% is about no effect
# Conditions: HEK293 TREx D2 cells, calcium flux, dopamine EC80; at 10 µM; stronger effect = higher value
# How it was run: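 Measurement of antagonist activity uses fluorescent calcium dye in inducible HEK293 T-REx D2 cells: 10 s baseline, compound addition with 180 s read, EC80 dopamine addition with a further 180 s read.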
row,SMILES,inhibition
1,Cn1c(=O)oc2cc(S(=O)(=O)N3CCC(C(=O)N4CCN(c5cccc(Cl)c5)CC4)CC3)ccc21,-18.3%
2,CCOc1ccc(CCNC(=O)c2ccc(CS(=O)Cc3ccc(Cl)cc3)o2)cc1 (configuration not stated),-3.63%
3,Cc1cc(C(=O)NNC(=S)NC(C)c2ccccc2)c2ccccc2n1 (configuration not stated),active: 45%
4,CC(=O)N1CCc2cc(Br)cc(S(=O)(=O)CCC(=O)NCCc3ccc(Cl)cc3)c21,7.78%
5,COc1ccc(Cl)cc1NC(=O)Cn1cc(S(=O)(=O)Cc2cccc(Cl)c2)c2ccccc21,1.04%
6,N#C/C(=C\c1ccc(-c2ccc(C(=O)O)cc2)o1)c1nc2ccccc2[nH]1,5.91%
7,CCc1ccccc1Nc1nn2c(=O)c3ccc(C(=O)NCc4ccccc4Cl)cc3nc2s1,-1.94%
8,Cn1nnnc1SCCNCc1ccccc1Cl,3.9%
9,COc1cccc(CNC(=O)CN(C)S(=O)(=O)c2ccc3c(c2)c(=O)n(C)c(=O)n3C)c1,-4.38%
10,CC(C)c1ccc(NC(=O)C(Cc2ccccc2)NS(=O)(=O)c2ccc3c(c2)CCC(=O)N3)cc1 (configuration not stated),18.2%
11,Cc1cccc(NC(=S)NCC(c2ccccc2)N(C)C)c1 (configuration not stated),active: 38.4%
12,Cc1ccc(OCC(=O)Nc2ccc3nc(SCC(=O)N(C)c4ccccc4)sc3c2)cc1,6.15%
13,COc1ccc(NC(=O)c2sc3nc[nH]c(=O)c3c2C)cc1OC,-6.49%
14,CCN(C(=O)CSc1nc2ccc(O)cc2c(=O)n1-c1ccc(OC)c(OC)c1)C1CCS(=O)(=O)C1 (configuration not stated),active: 42.8%
15,Cc1ccc(S(=O)(=O)N2CCN(CC(=O)Nc3ccccc3Cl)CC2)cc1,active: 39.7%
16,Cc1ccc(CSc2nc3c(c(=O)[nH]2)C(c2cccc(F)c2F)CC(=O)N3)cc1 (configuration not stated),-10.2%
17,CCOC(=O)c1cc(-c2ccc(OC)cc2)nn1Cc1ccccc1,20.8%
18,COc1ccc(N2CCN(C(=O)c3nn(-c4ccc(C)cc4)c(=O)n(C)c3=O)CC2)cc1,-6.63%
19,Cc1ccc(C)c(Nc2nnc(-c3ccc(C)c(S(=O)(=O)N4CCCCC4)c3)c3ccccc23)c1,3.54%
20,COc1cc2nc(SCC(=O)Nc3cccc(C)c3)n3nc(-c4ccccc4)nc3c2cc1OC,18.5%
21,COc1ccc(NC(=O)c2c(NC(=O)c3cccc(C)c3)sc3c2CCCC3)cc1,21.7%
22,NC(=O)C1(N2CCCCC2)CCN(CC(=O)Nc2cc(Cl)ccc2Cl)CC1,active: 43.4%
23,CC(=O)c1cccc(NC(=O)c2ccc3nc(C(C)C)oc3c2)c1,24.1%
24,COc1ccc(-c2nc(Cn3c(SCc4ccc(F)cc4)nc4cccnc43)c(C)o2)cc1,-16%

row,SMILES,inhibition
1,COc1cc(NC(=O)CC(C)S(=O)(=O)c2cc3c4c(c2)CCN4C(=O)CC3)cc(OC)c1 (configuration not stated),-6.24%
2,Cc1ccccc1C(=O)Nc1cccc(C(=O)OCc2cc(=O)n3nc(C4CC4)sc3n2)c1,-8.44%
3,CC(CCc1ccc(O)cc1)NC1C2CC3CC(C2)CC1C3 (configuration not stated),active: 71.4%
4,Cc1ccc(C)c(CN2C(=O)c3ccccc3Sc3ccc(C(=O)NCc4ccc5c(c4)OCO5)cc32)c1,-15.9%
5,COc1ccc(Cn2c(CO)cnc2SCC(=O)NCc2ccco2)cc1,6.99%
6,CC1=CC(c2ccccc2)n2nc(NS(=O)(=O)c3ccc(C)cc3)nc2N1 (configuration not stated),active: 121%
7,CCOC(=O)c1[nH]c2ccccc2c1NC(=O)c1cc(OCC)c(OCC)c(OCC)c1,-7.36%
8,Cc1ccc2onc(CC(=O)N3CCN(c4cccc(C)c4C)CC3)c2c1,13.8%
9,Cc1cc(=O)n2nc(N3CCC(C(=O)NCc4ccc(Cl)cc4)CC3)sc2n1,-4.82%
10,Cc1cccc(OCC(O)CN2CCN(c3ccccn3)CC2)c1C (configuration not stated),active: 78.2%
11,COc1ccc(-c2noc(CSc3nnc(-c4ccncc4)n3-c3ccc(C)c(C)c3)n2)cc1,-2.42%
12,Clc1ccc(Nc2nc(-c3ccccc3)c3cc(Cl)ccc3n2)cc1,-12.1%
13,Cc1ccccc1NC(=O)Nc1cccs1,-1.41%
14,CC(=O)C1=C(C)OC(N)=C(C#N)C1c1cc2cc(C)c(C)cc2nc1Cl (configuration not stated),active: 31.1%
15,O=C1c2oc3ccccc3c(=O)c2C(c2cccc(Br)c2)N1c1ccccn1 (configuration not stated),-22.1%
16,CCCCN(C)C(=O)Cn1cnc2sc(C)c(S(=O)(=O)N3CCN(c4ccccc4OC)CC3)c2c1=O,-8.77%
17,CNC(=O)c1ccc(NC(=O)COc2ccc(-c3nn(C)c(=O)c4ccccc34)cc2)cc1,-2.83%
18,Cc1ccc(OCC(=O)N(Cc2sccc2C)C2CCS(=O)(=O)C2)cc1 (configuration not stated),-5.98%
19,CCc1nn(CC(=O)N2CCN(c3cccc(C)c3C)CC2)c(=O)c2cc3sccc3n12,-11.7%
20,CCC(=O)N1CCc2cc(S(=O)(=O)NC(CC(C)C)C(=O)NCc3ccc(C)cc3)ccc21 (configuration not stated),9.46%
21,Cc1ccc(O)c(-c2n[nH]c3c2C(c2ccccc2F)N(Cc2ccco2)C3=O)c1 (configuration not stated),4.16%
22,O=C(CN1C(=O)S/C(=C\c2cccs2)C1=O)Nc1ccc(C(=O)O)c(O)c1,active: 39.8%
23,Cc1cc2[nH]c(=O)c(=O)[nH]c2cc1S(=O)(=O)Nc1cccc(C(F)(F)F)c1,-5.35%
